Measured values taken from publication PMC4559962.
These are yes or no findings as the source states them, for the method shown. For some assays here: Binding seen in cells or lysates may run through a third protein. Some entries that bind do so weakly or less than the wild type. Tags and fused reporters may be left off the sequences shown.

T1: HA-Wss1 (recombinant, wild type) (S. cerevisiae), P38838
T1 chain: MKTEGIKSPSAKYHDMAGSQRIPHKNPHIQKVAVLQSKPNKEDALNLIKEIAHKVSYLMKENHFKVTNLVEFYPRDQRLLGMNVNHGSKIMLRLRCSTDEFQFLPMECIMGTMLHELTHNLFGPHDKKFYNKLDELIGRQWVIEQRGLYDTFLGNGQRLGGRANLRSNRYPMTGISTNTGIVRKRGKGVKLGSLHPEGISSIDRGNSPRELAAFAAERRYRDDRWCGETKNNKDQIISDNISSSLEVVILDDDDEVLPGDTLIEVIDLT

T2: HA-Wss1 (wild type, expressed in yeast) (S. cerevisiae) (UniProt P38838)
T2 sequence: T1 chain

B1: HA-Wss1 (recombinant, wild type), P38838 1-269 (enzyme)
chain: T1 chain
B2: Doa1-FLAG (protein, UniProt P36037 1-715)
chain: MGYQLSATLKGHDQDVRDVVAVDDSKVASVSRDGTVRLWSKDDQWLGTVVYTGQGFLNSVCYDSEKELLLFGGKDTMINGVPLFATSGEDPLYTLIGHQGNVCSLSFQDGVVISGSWDKTAKVWKEGSLVYNLQAHNASVWDAKVVSFSENKFLTASADKTIKLWQNDKVIKTFSGIHNDVVRHLAVVDDGHFISCSNDGLIKLVDMHTGDVLRTYEGHESFVYCIKLLPNGDIVSCGEDRTVRIWSKENGSLKQVITLPAISIWSVDCMSNGDIIVGSSDNLVRIFSQEKSRWASEDEINELSTQVEKSTISSKTIEFDESKLSPYEILQSPGRKEGQIVVVKSPQGTIEAHQFSNSSWKKVGDVVGAGATGNDKKIEFEGKTYDYVFDVDIEDGKPPLKLPINVSDNPYTAADNFLARYELPMSYRDQVVQFILKNTNGISLDQPNDNASSSAVSPSKTSVMKVLPVKQYLIMENYNPDTIFNGIVKINSNEKTFDDEILAQIGGALHDIDESWELLLSFANTIRSNWEIKTPAYDIVRLIVKKLPYSSDIKDYIEEGLGNKNITLTMLTVRILVNCFNNENWGVKLLESNQVYKSIFETIDTEFSQASAKQSQNLAIAVSTLIFNYSALVTKGNSDLELLPIVADAINTKYGPLEEYQECEEAAYRLTVAYGNLATVEPTLRQFANSVTWLANIKRSYGNVPRFKDIFDDLS

Columns and labels:
[1] = molecular target: T1, HA-Wss1 (recombinant, wild type) (S. …); assay: non-reducing gel electrophoresis; recombinant HA-Wss1 (200 μg/ml) incubated at 25°C with OPA (0–3 mM); Coomassie staining; the oligomers disappear with DTT (disulfide linked); both purified; conditions: remark: other sources report otherwise
[2] = molecular target: T2, HA-Wss1 (wild type, expressed in yeast) (S. cerevisiae); assay: co-IP; HA-Wss1 constructs expressed from pYEPGAP-URA3 in yeast; lysates (150 mM NaCl, 50 mM Tris pH 7.4, 0.5% Triton X-100, 30 mM NEM) on anti-HA beads, 1 hr at 4°C; western blot; DOA1-FLAG cells (Figure 5B) or wss1Δ cells treated with 0.2 μg/ml 4-NQO (Figure 8C)

Binder	binding [1]	binding [2]
B1	binds	
B2		binds
